Test results published in PubChem BioAssay AID1508624 (National Center for Advancing Translational Sciences (NCATS), 2021).
The campaign covered roughly 48,000 compounds. About 120 (0.25%) were called active. Inconclusive results (about 4%) are left out. Calls come from the whole dose curve; as a rule, active = well fitted activation curve with a large enough effect; inconclusive = small, poorly fitted or top-dose-only effect, or another doubt; inactive = no such curve, though single readings can be large or run the other way. This is one part of the list.

Assay: Primary qHTS for Identification of Small Molecule Activators of Huntingtin-Antisense Promoter Activity; note: nearly all actives have a fitted effect of over 55% in size
Details: HEK293 HTT-AS promoter firefly luciferase reporter, 24 h; series mostly up to 57.5 µM; activity change, positive = activation: at the top concentration
In short: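 Quantitative HTS used concentration series of up to 57.5 uM final on HEK293 luciferase reporter cells, 24 h at 37 degrees C. Readout was Dual-Glo firefly luminescence.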

Activity change, positive = activation, inactive:
CCCC(C(=O)OCCN(CC)CC)(c1ccccc1)c1ccccc1 -29.3%, Cc1ccc(NC(=O)Cn2c(=O)n(CCC(=O)NCc3ccc4c(c3)OCO4)c(=O)c3sccc32)c(C)c1 -15.7%, Cc1ccc(C)c(N2CCN(c3nc4ccccc4n4c(C)nnc34)CC2)c1 -3.1%, Cc1ccc(NC(=O)C(c2ccccc2)N2Cc3ccccc3C2=O)cc1Cl (stereo not drawn) -14.4%, CCc1ccccc1NC(=O)CN1C(=O)c2cccnc2Oc2ccc(Cl)cc21 -34.4%, CCOc1ccc(Br)cc1CNCCSc1nnnn1-c1ccccc1 -15.2%, CC(C)(C)OC(=O)N1CCC(c2c(C(=O)Nc3ccc4c(c3)OCCO4)cnn2-c2ccccc2)CC1 -49.5%, CCc1ccc(NC(=O)c2nn(-c3ccc(C)cc3)c(=O)n(C)c2=O)cc1 -11.7%, CO[C@H]1C(=O)[C@]2(C)[C@@H](OC)C[C@H]3OC[C@@]3(OC(C)=O)[C@H]2[C@H](OC(=O)c2ccccc2)[C@]2(O)C[C@H](OC(=O)[C@H](O)[C@@H](NC(=O)OC(C)(C)C)c3ccccc3)C(C)=C1C2(C)C -33.9%, COC(=O)NCc1c(C)nn(-c2ccccc2)c1-n1cccc1 -15.2%, COc1ccc(CNC(=O)c2cc3c(s2)-c2c(C)cccc2OC3)cc1 4.13%, CCOC(=O)c1oc2c(c1C)-c1nn(Cc3ccccc3Cl)cc1CC2 -30.7%, Cc1ccc(C)c(NC(=O)C(=O)NCCc2csc3nc(-c4ccccc4C)nn23)c1 -46.8%, COc1ccc(-c2n[nH]c3c2C(c2ccc(O)cc2)N(c2ccc(Br)cc2)C3=O)cc1 (stereo not drawn) -60.4%, CSc1cccc(NC(=O)N2CCN(c3cc(-c4noc(C)n4)ccc3C)CC2)c1 -34.7%, CCOC(=O)c1c(C)[nH]c(C)c1S(=O)(=O)N1CCCC(C(=O)Nc2ccc(F)cc2F)C1 (stereo not drawn) -6.76%, O=C(NC1CCCCCC1)c1ccc2c(c1)sc1nc(-c3ccccc3)cn12 11.5%, COc1cc(C2CC(=O)N(c3ccccc3)C3=C2C(=O)OC3)cc(OC)c1OC (stereo not drawn) -7.11%, C=C(C)CSc1nc2sc3c(c2c(=O)n1-c1ccccc1)CCC(C)C3 (stereo not drawn) 7.73% [at 11.5 µM, percent change from vehicle, -100% = no light], CCOc1ccc(NC(=O)CSc2cn(CC(=O)N3CCCCCC3)c3ccccc23)cc1 -27%, O=C(C1CCC(Cn2c(=O)c3sccc3n(Cc3cccc(F)c3)c2=O)CC1)N1CCCCC1 (stereo not drawn) -43.1%, O=C(NCCc1ccccc1)C(=O)NCC(c1cccnc1)N1CCN(c2ccccc2F)CC1 (stereo not drawn) -45%, COc1ccc(CCNC(=O)c2ccc(CS(=O)(=O)Cc3cccc(C)c3)o2)cc1OC -30.7%, Cc1ccc(CNC(=O)C(=O)NCC(c2ccco2)S(=O)(=O)c2cccs2)cc1 (stereo not drawn) -22.2%, CCN1CCN(C(c2ccc(F)cc2)c2c(O)cc(C)n(CCOC)c2=O)CC1 (stereo not drawn) -17.4%, CCc1cccc2c(-c3ccc(F)cc3)nc(SCC(=O)Nc3ccccc3)nc12 -13.5%, CC(C)CCNC(=O)C1CCN(C(=O)N2CCOc3ccc(Cl)cc32)CC1 -13.7%, COc1ccc(C(=O)Nc2ccc(-c3cc4ccccc4oc3=O)c(C)c2)cc1OC -34.8%, CCc1ccc(Sc2cc(C(=O)NC(C)CC)c3ccccc3n2)cc1 (stereo not drawn) -21.9%, COc1cccc(NC(=O)c2cnn(-c3ccccc3)c2-n2cccc2)c1 -22%, CCOc1ccc(OCC(=O)Nc2nnc3n2CCS3)cc1 -0.425%, COc1ccccc1-n1c(/C=C/c2c(C)n(C)c3ccccc23)nc2ccccc2c1=O -30.3%, COc1ccc(-c2noc(CSc3nnc(-c4ccncc4)n3-c3ccc(C)cc3)n2)cc1 -38.2%, CCOc1ccc(Sc2cc(C(=O)NCCc3ccccc3)c3ccccc3n2)cc1 0.501%, CCOC(=O)C(Cc1c[nH]c2ccccc12)NC(=O)COc1ccc(Cl)c(C)c1 (stereo not drawn) -16.6%, COc1cccc(CNC(=O)C2CCC(CNS(=O)(=O)c3ccc(Br)s3)CC2)c1 (stereo not drawn) -16.7%, COc1ccccc1CNc1ccc(-c2nc(-c3ccncc3)no2)cc1[N+](=O)[O-] -8.1%, COc1ccc(CNC(=O)CC(c2ccc(OC)c(OC)c2)N2Cc3ccccc3C2=O)cc1 (stereo not drawn) -33.8%, CCOc1ccc(NC(=O)CSC2=Nc3ccccc3C3=NC(CC(=O)NCc4ccco4)C(=O)N23)cc1 (stereo not drawn) -6.69%, Cc1cc2ccccc2n1CCNC(=O)c1cccc(Cl)c1 -16.7%, CC(C)c1ccc(NC(=O)c2cc(S(=O)(=O)NCc3ccccc3Cl)ccc2F)cc1 -29.9%, Cc1ccc(N(CC(=O)Nc2ccc(C)c(F)c2)S(=O)(=O)c2c(C)n[nH]c2C)cc1 -22.4%, N#Cc1c[nH]n2c(NC3CCCC3)c(-c3cccc(Cl)c3)nc12 8.68%, CCOc1cc(C(=O)N2CCc3c([nH]c4ccccc34)C2c2ccccc2)cc(OCC)c1OCC (stereo not drawn) -26.2%, COc1ccc(C)cc1NC(=O)Cn1c(=O)ccc2cc(S(=O)(=O)N3CCCC3)ccc21 -37%, CCOC(=O)c1sc2ncn(CC(=O)Nc3ccc(C)cc3Br)c(=O)c2c1C -10.4%, O=C(Cn1c(=O)nc(-c2ccccc2)c2ccccc21)NCc1ccc(F)cc1 4.12%, O=C(Nc1ccccc1)N(Cc1ccc(F)cc1)c1ccccn1 -12.9%, C=Cc1ccc(CN2C(=O)c3ccccc3Sc3ccc(C(=O)OCc4ccco4)cc32)cc1 -26.9%, Cc1cc(O)c(C(c2ccccc2)N2CCN(C)CC2)c(=O)n1Cc1ccco1 (stereo not drawn) -14%, COc1ccc(-c2noc(CN(C(C)C)S(=O)(=O)c3ccc(Br)cc3)n2)cc1 -27.7%, CC1=C(C(=O)N2CCN(c3cccc(C)c3C)CC2)C2(CCCCC2)OC1=O -7.32%, Cc1cccc(NC2=CC(c3cccc(Br)c3)N(c3cccc(C)c3)C2=O)c1 (stereo not drawn) -4.76%, CCOC(=O)c1c(C)[nH]c(C)c1S(=O)(=O)NCC(=O)N1CCN(c2cccc(C)c2)C(C)C1 (stereo not drawn) -17.9%, O=S(=O)(c1ccc2c(c1)CCN2)N1CCCCCC1 -2.32%, Cc1ccc2c(c1)c1c(c(=O)n(Cc3ccccc3)c(=O)n1CC(=O)NCc1ccccc1Cl)n2C -2.91%, CCc1ccc(NCc2cc3cc(OC)c(OC)cc3n(CC(=O)Nc3cc(C)ccc3C)c2=O)cc1 -8.18%, CN(C(=O)CN1C(=O)CCSc2ccc(S(=O)(=O)N3CCCC3)cc21)c1ccccc1 -8.32%
